Assay [1] addresses T1, Human B7-1/CD80 Protein, Fc Tag (Acro B71-H5259) (human, UniProt P33681 35-242).
T1 construct: Bought protein
T1 sequence (looked up): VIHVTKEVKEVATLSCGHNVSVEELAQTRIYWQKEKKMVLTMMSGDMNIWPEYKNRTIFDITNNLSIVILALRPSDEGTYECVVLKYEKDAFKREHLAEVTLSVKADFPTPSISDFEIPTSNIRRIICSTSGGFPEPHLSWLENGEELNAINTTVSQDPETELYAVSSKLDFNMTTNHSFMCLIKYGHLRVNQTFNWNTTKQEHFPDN
The experiment in a line: ELISA, plate coated with 1 µg/mL B7 family protein. The protocol:
(§1) The proteins of the B7 family (see Table 9-1 for details) were each diluted to 1 μg/mL with PBS, added to a 96-well plate (Corning, #9018) at 100 μL per well, and incubated overnight at 4° C. After the liquid was discarded, the plate was washed 3 times with PBST buffer (pH 7.4, containing 0.05% tween-20), and 250 μL of 2% BSA blocking buffer was added. The plate was incubated at 37° C. for 1 hour. The blocking buffer was discarded, and the plate was washed 3 times with PBST buffer (pH 7.4, containing 0.05% Tween-20). The test antigen-binding protein was diluted to 2 concentrations: 10 nM and 1 nM, and added at 100 μL per well. The plate was incubated at 37° C. for 1 hour. An isotype antibody was taken as a control. After the plate was washed 3 times with PBST buffer (pH 7.4, containing 0.05% Tween-20), the plate was added with a 5000-fold diluted goat anti-human F(ab′)₂ HRP secondary antibody (Jackson ImmunoResearch, 109-035-097), and incubated at 37° C. away from light for 1 hour. After the plate was washed 3 times with PBST buffer (pH 7.4, containing 0.05% Tween-20), TMB (Biopanda, #TMB-S-003) was added at 100 μL/well. The plate was left away from light at room temperature for about 30 minutes. The reactions were terminated by adding 50 μL of stop buffer (BBI life sciences, #E661006-0200) to each well, and the absorbance values at 450 nm (OD450) was measured using a microplate reader (PerkinElemer, #Enspire).
Background: An ELISA detects its analyte on a solid surface through an enzyme-linked reagent.

For assay [2], the target named is T2, B7-H3/CD276 Protein, Human, Recombinant (ECD, Fc Tag) (Sino Biological 11188-H02H) (human, UniProt Q5ZPR3 29-466).
T2 construct: extracellular domain; Bought protein
T2 sequence (looked up): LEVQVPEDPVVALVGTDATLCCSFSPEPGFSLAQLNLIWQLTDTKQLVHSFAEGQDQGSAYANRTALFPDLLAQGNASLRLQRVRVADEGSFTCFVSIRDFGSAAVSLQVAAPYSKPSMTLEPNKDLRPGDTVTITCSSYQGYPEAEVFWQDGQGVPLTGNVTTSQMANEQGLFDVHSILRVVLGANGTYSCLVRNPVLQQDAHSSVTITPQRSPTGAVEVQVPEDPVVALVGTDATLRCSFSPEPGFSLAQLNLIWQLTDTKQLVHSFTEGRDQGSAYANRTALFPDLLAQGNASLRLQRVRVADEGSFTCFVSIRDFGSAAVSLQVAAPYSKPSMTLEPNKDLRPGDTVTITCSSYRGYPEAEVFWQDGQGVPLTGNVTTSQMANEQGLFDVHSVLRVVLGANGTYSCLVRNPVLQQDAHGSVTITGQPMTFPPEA
The experiment in a line: ELISA, plate coated with 1 µg/mL B7 family protein. The protocol: as §1

Assay [3] concerns the target T3, B7-H6/NCR3LG1 Protein, Human, Recombinant (Fc Tag) (Sino Biological 16140-H02H) (human, UniProt Q68D85 25-262).
T3 construct: Bought protein
T3 sequence (looked up): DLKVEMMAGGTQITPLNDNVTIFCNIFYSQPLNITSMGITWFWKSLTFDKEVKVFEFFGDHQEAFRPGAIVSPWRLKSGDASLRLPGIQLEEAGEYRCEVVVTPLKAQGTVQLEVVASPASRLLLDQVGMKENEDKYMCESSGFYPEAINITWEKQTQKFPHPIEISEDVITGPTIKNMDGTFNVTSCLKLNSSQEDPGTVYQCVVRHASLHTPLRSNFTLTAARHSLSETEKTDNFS
The assay can be described thus: ELISA, plate coated with 1 µg/mL B7 family protein. Here is the method: as §1

Assay [4] deals with T4, Human B7H4 (his tag), Sino Biological #10738-H08H (human, UniProt Q7Z7D3 25-259).
T4 construct: extracellular domain; Bought protein; also called hB7H4-ECD-his
T4 sequence (looked up): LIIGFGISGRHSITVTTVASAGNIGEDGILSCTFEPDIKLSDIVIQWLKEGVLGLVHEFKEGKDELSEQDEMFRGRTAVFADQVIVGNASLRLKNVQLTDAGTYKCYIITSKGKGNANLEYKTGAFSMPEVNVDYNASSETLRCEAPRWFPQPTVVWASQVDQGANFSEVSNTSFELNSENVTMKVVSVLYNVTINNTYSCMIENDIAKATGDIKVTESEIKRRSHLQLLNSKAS
The experiment in a line: SPR (Biacore T200), antibody captured on Protein A, B7H4-his as analyte, 1:1 fit. Here is the method: 10×HBS-EP+ (GE Healthcare, #BR-1006-69) was diluted 10-fold and then taken as an experimental buffer. The flow rate was set at 10 μL/min, and Protein A was coupled to 4 channels of a chip CM5 (GE Healthcare, #BR-1005-30) through the following procedures: 1) the injection time was set to 800 s, and a fresh mixture of 50 mM NHS and 200 mM EDC was injected into the 4 channels in a volume ratio of 1:1; 2) Protein A was diluted to 20 μg/mL with sodium acetate (GE Healthcare, #BR-1003-50) at pH 4.5 and injected into each channel for 800 s; and 3) 1 M ethanolamine at pH 8.5 was injected for 800 s to block the remaining active carboxyl groups on the chip surface. After blocking, the instrument was equilibrated with 1×HBS-EP+buffer for 2 hours, and the final coupling level of Protein A was about 2000 RU.
A multi-cycle kinetics mode was set at Biacore T200, and each cycle included antibody capture, analyte binding and chip regeneration. […] Finally, 10 mM glycine-hydrochloric acid at pH 1.5 (GE Healthcare, #BR-1003-54) was injected at the same flow rate for 30 s to regenerate the chip.
The experimental results were analyzed using the Biacore T200 analysis software 2.0, with channel 1 subtracted as a reference channel and a 1:1 kinetic fitting model selected as an analysis model.
(In general: Surface plasmon resonance follows binding to a sensor surface in real time, without labels.)

B1: PR002421 (antibody, human IgG1, kappa)
heavy: QVQLVQSGAEVKKPGSSMRVSCKASEDTFSSYAISWVRQAPGQGLEWMGGTAPIFGTTNYAQKFQGRVTITADKSTSTAYMELSSLRSEDTAVYYCARGGPYFDYWGQGTLVTVSSASTKGPSVFPLAPSSKSTSGGTAALGCLVKDYFPEPVTVSWNSGALTSGVHTFPAVLQSSGLYSLSSVVTVPSSSLGTQTYICNVNHKPSNTKVDKKV[human IgG1 Fc with changes not written out]
light: EIVMTQSPASLSVSPGERATLSCRASQSVSSNLAWYQQKPGQAPRLLIYGASTRATGIPARVSGGGSGTEFTLTISSLQSEDFAVYYCQQYKNWPFTFGPGTKLEIKRTVAAPSVFIFPPSDEQLKSGTASVVCLLNNFYPREAKVQWKVDNALQSGNSQESVTEQDSKDSTYSLSSTLTLSKADYEKHKVYACEVTHQGLSSPVTKSFNRGEC
notes: PTM variant/DE mutant of PR002037 (L: C87Y; Fc S239D, I332E), human IgG1; also called RP002421
By Kd is commonly meant a measure of binding affinity in units of concentration. Higher therefore signals lower affinity. A word on the koff: it is the first-order rate constant of dissociation. Low values mean a long-lived complex, high ones a short-lived complex. A word on the kon: it is a measure of how fast the partners come together. A high value points to fast association. For B1, the binding result in assay [1] is “no binding (tested: 10 nM)”. Also, in assay [2], the binding result is “no binding (tested: 10 nM)”. Besides, the binding result in assay [3] is given as “no binding (tested: 10 nM)”. In assay [4], the affinity, expressed as Kd, was 0.921 nM; the koff was found to be 0.000322 s⁻¹; the kon amounted to 350000 M⁻¹ s⁻¹.

For the origin of these results see US20230312722A1 (NONA BIOSCIENCES SUZHOU, published 2023).
